From PMC7666182
These are yes or no findings as the source states them, for the method shown. In cells and extracts the contact can be indirect. Some entries that bind do so weakly or less than the wild type. For part of these data: Sequences can lack the tags named with a protein.

Protein sequences, listed by entry. Tags and fused reporters are not part of them. Lines headed by an entry give the natural chain unless they say otherwise; changes in a name come on top. Residues count along the entry.
UniProt P35222: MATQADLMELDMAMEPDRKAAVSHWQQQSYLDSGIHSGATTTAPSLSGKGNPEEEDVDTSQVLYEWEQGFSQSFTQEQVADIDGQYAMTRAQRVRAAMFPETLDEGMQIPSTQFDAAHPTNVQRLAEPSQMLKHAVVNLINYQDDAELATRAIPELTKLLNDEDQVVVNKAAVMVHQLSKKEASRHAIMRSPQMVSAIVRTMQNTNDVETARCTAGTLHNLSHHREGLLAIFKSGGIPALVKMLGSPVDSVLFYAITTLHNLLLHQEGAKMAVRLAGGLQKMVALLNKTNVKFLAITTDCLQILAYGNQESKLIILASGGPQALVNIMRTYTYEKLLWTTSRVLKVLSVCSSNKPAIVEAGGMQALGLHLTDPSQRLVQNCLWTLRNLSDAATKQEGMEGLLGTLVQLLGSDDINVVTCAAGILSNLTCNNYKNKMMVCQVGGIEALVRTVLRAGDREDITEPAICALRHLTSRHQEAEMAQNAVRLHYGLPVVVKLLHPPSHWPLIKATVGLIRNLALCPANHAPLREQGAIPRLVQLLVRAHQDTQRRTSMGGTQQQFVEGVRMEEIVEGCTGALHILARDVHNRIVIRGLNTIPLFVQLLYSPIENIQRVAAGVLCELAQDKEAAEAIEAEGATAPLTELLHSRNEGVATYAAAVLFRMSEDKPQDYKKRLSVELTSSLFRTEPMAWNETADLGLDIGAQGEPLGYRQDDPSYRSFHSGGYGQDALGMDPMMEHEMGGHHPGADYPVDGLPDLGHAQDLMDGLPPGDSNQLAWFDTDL
GST-β-catenin-ARM: residues 133-695 of P35222
UniProt P49841: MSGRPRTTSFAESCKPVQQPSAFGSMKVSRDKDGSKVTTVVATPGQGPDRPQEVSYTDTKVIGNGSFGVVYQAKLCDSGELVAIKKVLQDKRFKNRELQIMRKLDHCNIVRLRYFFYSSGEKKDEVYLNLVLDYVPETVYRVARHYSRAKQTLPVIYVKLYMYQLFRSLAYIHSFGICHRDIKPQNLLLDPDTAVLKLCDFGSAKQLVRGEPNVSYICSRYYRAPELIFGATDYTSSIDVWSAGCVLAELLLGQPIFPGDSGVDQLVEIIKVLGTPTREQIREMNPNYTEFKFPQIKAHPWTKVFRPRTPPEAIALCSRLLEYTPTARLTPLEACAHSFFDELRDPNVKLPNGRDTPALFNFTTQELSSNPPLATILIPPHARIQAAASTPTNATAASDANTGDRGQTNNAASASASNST

T1: IRF3 (endogenous) (human (endogenous in HCT116 and H1299)) (UniProt Q14653)
T1 sequence: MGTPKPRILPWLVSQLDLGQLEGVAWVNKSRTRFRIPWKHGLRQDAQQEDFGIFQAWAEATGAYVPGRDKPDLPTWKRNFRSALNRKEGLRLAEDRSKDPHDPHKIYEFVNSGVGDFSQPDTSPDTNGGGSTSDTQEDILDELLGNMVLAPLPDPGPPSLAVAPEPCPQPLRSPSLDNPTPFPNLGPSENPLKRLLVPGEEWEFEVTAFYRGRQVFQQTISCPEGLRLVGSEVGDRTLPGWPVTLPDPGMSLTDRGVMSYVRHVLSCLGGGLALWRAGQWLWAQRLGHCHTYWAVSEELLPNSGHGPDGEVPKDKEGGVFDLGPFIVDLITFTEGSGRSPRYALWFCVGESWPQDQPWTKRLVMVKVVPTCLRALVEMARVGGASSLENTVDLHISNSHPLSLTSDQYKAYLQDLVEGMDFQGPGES

T2: Flag-IRF3 (UniProt Q14653)
T2 sequence: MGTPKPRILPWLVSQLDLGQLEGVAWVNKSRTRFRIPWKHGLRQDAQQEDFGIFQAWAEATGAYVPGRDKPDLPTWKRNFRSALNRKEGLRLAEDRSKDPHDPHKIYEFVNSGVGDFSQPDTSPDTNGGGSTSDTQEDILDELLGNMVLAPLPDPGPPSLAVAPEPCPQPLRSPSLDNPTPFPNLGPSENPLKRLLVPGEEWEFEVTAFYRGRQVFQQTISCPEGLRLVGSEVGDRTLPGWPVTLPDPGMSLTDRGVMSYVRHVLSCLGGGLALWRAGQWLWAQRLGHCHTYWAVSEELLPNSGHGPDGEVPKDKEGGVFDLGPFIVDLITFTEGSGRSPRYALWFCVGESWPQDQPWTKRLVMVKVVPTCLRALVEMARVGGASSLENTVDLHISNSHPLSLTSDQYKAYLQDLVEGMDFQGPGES


Columns and labels:
[1] = molecular target: T1, IRF3 (endogenous) (human (endogenous in HCT116 and H1299)); assay: co-IP; anti-IRF3 immunoprecipitates of HCT116 or H1299 cell extracts, immunoblot; cells treated with wnt3a-conditioned medium or with VSV (association decreased after VSV)
Flag-IRF3 = molecular target: T2, Flag-IRF3; assay: co-IP; anti-FLAG immunoprecipitates of transfected HEK293T cells, immunoblot
GST-β-catenin-ARM = GST-β-catenin-ARM (UniProt P35222); assay: pull-down; GST pull-down of GST-β-catenin constructs with MBP-IRF3; the paper calls the interaction direct
[2] = molecular target: β-catenin-S33A of the GST pull-down (the active mutant of β-catenin) (UniProt P35222); assay: as above
GST-β-catenin = GST-β-catenin (UniProt P35222); assay: as above

Row | binding (Flag-IRF3) | Molecule | binding [1] | also measured
1 |  | β-catenin (endogenous, total) (from UniProt P35222 1-781) | binds | 
2 | no binding | HA-GSK3β (from UniProt P49841 1-420) |  | 
3 | binds | HA-β-catenin (from UniProt P35222 1-781) |  | 
4 | binds | HA-β-catenin-S33A (from UniProt P35222 1-781) |  | 
5 |  | GSK3β (endogenous) (from UniProt P49841 1-420) | no binding | 
6 |  | active (non-phospho)-β-catenin (endogenous) (from UniProt P35222 1-781) | binds | 
7 |  | MBP-IRF3 (protein, UniProt Q14653 1-427) MGTPKPRILPWLVSQLDLGQLEGVAWVNKSRTRFRIPWKHGLRQDAQQEDFGIFQAWAEATGAYVPGRDKPDLPTWKRNFRSALNRKEGLRLAEDRSKDPHDPHKIYEFVNSGVGDFSQPDTSPDTNGGGSTSDTQEDILDELLGNMVLAPLPDPGPPSLAVAPEPCPQPLRSPSLDNPTPFPNLGPSENPLKRLLVPGEEWEFEVTAFYRGRQVFQQTISCPEGLRLVGSEVGDRTLPGWPVTLPDPGMSLTDRGVMSYVRHVLSCLGGGLALWRAGQWLWAQRLGHCHTYWAVSEELLPNSGHGPDGEVPKDKEGGVFDLGPFIVDLITFTEGSGRSPRYALWFCVGESWPQDQPWTKRLVMVKVVPTCLRALVEMARVGGASSLENTVDLHISNSHPLSLTSDQYKAYLQDLVEGMDFQGPGES |  | binding (GST-β-catenin-ARM): binds; binding [2]: binds; binding (GST-β-catenin): binds
